# Results as given in PubChem BioAssay (NCATS).
# This is one part of the list. These are further read-outs of the screen, such as a control signal, another cell line or another target. No call is given for them. Compounds called inactive in the main read-out are mostly missing here. The note in brackets gives the kind of curve behind each potency; many fits are weak.
# Test: qHTS Assay for Lipid Storage Modulators (AID 1519)
# Conditions: Drosophila S3 cells, BODIPY lipid droplet/cell ratio, laser cytometry; measured here: lipid (BODIPY) channel AC50; cells loaded with oleic acid
# Procedure, shortened: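 Cells seeded at 5,000 per well were treated with compounds over a concentration series and loaded with oleic acid (400 uM, as added). Lipid droplet fluorescence (488 nm excitation, 500-530 nm channel) was read by laser-scanning cytometry and normalized to 20 uM Triacsin C.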
# Tags describe the fitted curve by direction and shape.
row,SMILES,AC50
1,Cc1ccccc1-c1cc(NCc2cccnc2)ncn1,"5.62 µM [rising, full curve]"
2,N#Cc1ccc(CN2CC3(CCN(C(=O)c4csnn4)CC3)C2)cc1,"20 µM [rising, partial curve]"
3,Cn1ccc2cc(NC(=O)Nc3cccnc3)ccc21,"1.78 µM [rising, full curve]"
4,CNc1cc(OC)c(C(=O)N[C@@H]2CCN(Cc3ccccc3)[C@H]2C)cc1Cl,"7.94 µM [rising, full curve]"
5,COCCn1c(=O)c(-c2cccc(Cl)c2)nc2cncnc21,"3.55 µM [rising, full curve]"
6,CC(C)[C@H](CO)Nc1nc(Nc2cc(N)cc(Cl)c2)c2ncn(C(C)C)c2n1,"20 µM [rising, full curve, poor fit]"
7,COc1cc2c(cc1OC)C(c1ccc(N)cc1)=NNC(=O)C2,"11.2 µM [rising, partial curve, poor fit]"
8,CCNc1ncc2nc(-c3cccs3)c(=O)n(Cc3cccc(OC)c3)c2n1,"0.0562 µM [rising, full curve, poor fit]"
9,COc1ccccc1N1CCN(CCCCNC(=O)c2ccc(-c3ccc(C(C)=O)cc3)cc2)CC1,"28.2 µM [rising, partial curve, poor fit]"
10,CN(C)c1ncc2nc(-c3ccc(Cl)cc3)c(=O)n(C[C@H]3CCCO3)c2n1,"1.58 µM [rising, full curve]"
11,O=C(O)c1cc(=O)cc(C(=O)O)[nH]1,"44.7 µM [rising, single point]"
